# Experimental data from article PMC4336329 (PLoS ONE, 2015).
# In all, about 310,000 compounds went through this assay and about 14,000 (4.5%) showed an effect of 50% or more. The effect is printed as a negative number. The list shows a part of the results.
# Biological target: human ether-à-go-go-related gene (hERG) potassium channel (human, UniProt Q12809)
# Assay: primary screen, population patch clamp on CHO cells stably expressing hERG
# 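Note: peak tail current of the secondary pulse compared with the same well before compound.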
# Sequence of human ether-à-go-go-related gene (hERG) potassium channel (Q12809 whole entry, looked up): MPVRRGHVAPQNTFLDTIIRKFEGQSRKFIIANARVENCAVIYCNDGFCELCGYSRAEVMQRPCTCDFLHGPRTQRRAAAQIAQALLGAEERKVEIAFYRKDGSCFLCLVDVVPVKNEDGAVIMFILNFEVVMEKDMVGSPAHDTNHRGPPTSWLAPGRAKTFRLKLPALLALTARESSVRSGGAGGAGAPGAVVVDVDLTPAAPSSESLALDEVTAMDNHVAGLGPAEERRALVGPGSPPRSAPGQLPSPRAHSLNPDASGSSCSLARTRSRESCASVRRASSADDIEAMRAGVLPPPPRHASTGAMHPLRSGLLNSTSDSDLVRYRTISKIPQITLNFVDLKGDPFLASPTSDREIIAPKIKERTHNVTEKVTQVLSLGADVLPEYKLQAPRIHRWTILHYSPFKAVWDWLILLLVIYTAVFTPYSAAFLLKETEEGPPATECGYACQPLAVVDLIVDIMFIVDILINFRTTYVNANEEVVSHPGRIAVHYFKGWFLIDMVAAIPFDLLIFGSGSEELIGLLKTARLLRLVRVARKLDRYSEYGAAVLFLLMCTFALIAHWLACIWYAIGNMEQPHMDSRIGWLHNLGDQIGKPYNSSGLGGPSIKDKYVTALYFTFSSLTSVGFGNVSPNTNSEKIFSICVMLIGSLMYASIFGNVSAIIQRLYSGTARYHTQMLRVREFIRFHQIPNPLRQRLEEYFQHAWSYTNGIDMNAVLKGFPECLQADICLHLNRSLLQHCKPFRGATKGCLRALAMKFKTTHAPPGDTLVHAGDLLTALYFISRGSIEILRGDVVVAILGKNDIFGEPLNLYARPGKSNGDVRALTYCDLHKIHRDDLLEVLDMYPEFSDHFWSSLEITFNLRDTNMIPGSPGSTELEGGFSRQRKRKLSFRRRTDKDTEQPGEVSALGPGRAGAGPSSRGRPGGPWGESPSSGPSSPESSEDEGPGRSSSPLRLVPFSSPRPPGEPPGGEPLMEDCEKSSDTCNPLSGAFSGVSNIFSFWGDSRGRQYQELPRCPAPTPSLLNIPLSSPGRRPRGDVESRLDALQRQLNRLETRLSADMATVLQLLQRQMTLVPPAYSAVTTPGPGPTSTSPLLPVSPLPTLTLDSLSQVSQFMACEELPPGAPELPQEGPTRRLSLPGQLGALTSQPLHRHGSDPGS
row,Compound,"hERG current change (%, negative = inhibition) at 10uM [%]"
1,CNC(=O)C(=O)N/N=C/c1ccccn1,20.5
2,CCOC(=O)N1CCN(C(=S)NC(=O)c2ccnn2C)CC1,15.8
3,O=C(OC(C(=O)NCc1ccc2c(c1)OCO2)c1ccc(Cl)cc1)c1ccco1 (centres unmarked),-23
4,S=C(Nc1cccc(Cl)c1Cl)N1CCCC1,17.9
5,Cc1ccc(OCCOc2cccc3ccc(C)nc23)c([N+](=O)[O-])c1.O=C(O)C(=O)O,-10.7
6,CC1CC(c2ccccc2)n2nc(NC(=O)c3cccs3)nc2N1 (centres unmarked),16.6
7,O=C(NC(Cc1ccccc1)C(=O)N1CCN(c2ccccn2)CC1)c1ccco1 (centres unmarked),-15.9
8,O=C(NC1CCN(C(=S)NCc2ccco2)CC1)NC12CC3CC(CC(C3)C1)C2,5.73
9,CC12CCCc3c(O)cc(=O)n(c31)-c1ccccc12 (centres unmarked),-1.22
10,Cc1ccc(C(=O)CC2(O)C(=O)N(C)c3ccc(Br)cc32)c(C)c1 (centres unmarked),-12.7
11,N#CSC(c1ccccc1)c1nc2ccccc2[nH]c1=O (centres unmarked),15.8
12,Cc1cccc(N(C(=O)c2ccc(Cl)cc2)C2CS(=O)(=O)CC2OC(=O)c2ccc(Cl)cc2)c1 (centres unmarked),11.1
13,COc1ccc(NC(=O)CCNS(=O)(=O)c2ccc3c(c2)c(=O)n(C)c(=O)n3C)cc1,-2.03
14,CCN(CC)CCN1C(=O)c2ccccc2NC1c1ccc(C)cc1 (centres unmarked),-66.1
15,O=C(Nc1nc(=O)c2ccccc2s1)c1ccc(F)cc1,11.5
16,COc1ccc(OCc2ccc(C(=O)NN)cc2)cc1,-8.32
17,CCOC(=O)C1(CCCc2ccccc2)CCN(C(=O)c2cnc(C)cn2)CC1,-39.8
18,O=C(c1c(F)cccc1F)N1CCN(CCOc2ccccc2)CC1,-8.2
19,C=CCn1c(Sc2nncn2C)nc2c1c(=O)[nH]c(=O)n2C,11.8
20,C/C(=N/NC(=O)c1cc(C)[nH]n1)c1ccncc1,-27.4
21,O=C(Cn1c(=O)n(-c2cccc(Cl)c2)c(=O)n1CC(=O)N1CCCCC1)N1CCCCC1,4.64
22,O=C(NC(=S)Nc1ccccc1)c1cncc(C#Cc2ccccc2)c1,16.5

row,Compound,"hERG current change (%, negative = inhibition) at 10uM [%]"
1,CN(C)C1CCN(C(=O)c2cccc(OC3CCN(S(=O)(=O)N(C)C)CC3)c2)C1 (centres unmarked),23.9
2,COc1ccc(C(=O)OCC(=O)NCc2ccc3c(c2)OCO3)cc1[N+](=O)[O-],9.98
3,C/C(=N/NC(=O)c1ccc(Br)s1)c1cccnc1,-20.8
4,CCN(CC(=O)Nc1ccc2c(c1)OCCO2)c1nc(-c2cccnc2)nc2ccccc12,-39.1
5,COc1cccc(NC(=S)N2CCCC2c2ccc(OC)c(OC)c2)c1 (centres unmarked),1.24
6,Cc1cc2oc3c(c(=O)c2cc1C)C(c1ccc(F)cc1)N(CCCN1CCOCC1)C3=O (centres unmarked),-22.8
7,Cl.O=[N+]([O-])c1ccc(OCC(O)CNC2CCCC2)cc1 (centres unmarked),-76.2
8,COc1ccccc1CNC(=O)Cn1ccc2cc(S(=O)(=O)N3CCCC3)ccc21,-3.32
9,O=S(=O)(Nc1nc2ccccc2nc1NCc1ccco1)c1ccccc1,7.96
10,c1ccc(-c2csc(-c3ccncc3)n2)cc1,-43.2
11,CCc1ccc(NC(=O)Nc2ccc3c(c2)N(C)C(=O)CS3)cc1,7.64
12,CCCCn1c(CN2CCN(C(=O)OCC)CC2)nc2c1c(=O)[nH]c(=O)n2C,6.72
13,COc1ccc(N/C(N)=N/c2nc(C)cc(=O)[nH]2)cc1,8.38
14,CCC(CO)NC1=C([N+](=O)[O-])C(=O)CC(C)(C)C1 (centres unmarked),5.24
15,Cc1ccc(NC(=S)NC(=O)c2ccc(-c3ccccc3)cc2)cc1,-9.58
16,Cc1cc(C)n(-c2ccc(F)cc2CN2CCN(C3CCCC3)C(CCO)C2)n1 (centres unmarked),-24.2
17,Cc1ccccc1CN1[C@@H](CC2CCCCC2)COCCS1(=O)=O,-10.8
18,CCCNC(=S)N(Cc1cc2cc(C)ccc2n2nnnc12)CC(C)(C)CN(C)C,11.4
19,Cc1ccccc1C(=O)N1c2ccccc2OCC1C(C)(C)C (centres unmarked),14.9
20,Cc1ccc(-c2ccc(CCC(=O)O)n2-c2ccc(C(=O)O)cc2)cc1,16.8
21,CCN(c1ccccc1)S(=O)(=O)c1ccc(OC)c(NC(=O)C2CC2)c1,-37.6
22,BrC(=C\c1ccccc1)/C=N/N1CCN(c2ccccc2)CC1,12.7
